Out of some 150,000 compounds screened, about 540 (0.36%) showed an effect of 50% or more. Some of the results follow.
Tested on: Plasmodium falciparum
Assay: Primary screen in NF54 nanoGlo assay, in single point, at 2uM, 72h; a lower Z score goes with more inhibition
Type: functional, Erythrocyte
Details: timepoint 72 hour

Row | Structure (SMILES) | % Inhibition | Z score | % Inhibition (2 µM)
1 | CNc1nc(N2CCC3(CCC(=O)N(C[C@H]4CCCO4)C3)CC2)ncc1F | -5% | 0.63 | –
2 | COc1ccc(C)cc1Nc1cc(C(=O)N2CCC(C)CC2)nc2ccc(F)cc12 | -5% | 0.58 | –
3 | CC(C)[C@H](CNC(=O)c1cn[nH]c1C(F)(F)F)c1ccccc1 | -13% | 1.48 | –
4 | O=C(Cc1ccccc1Cl)N1CC[C@H](Oc2ccc3ccccc3n2)C1 | -5% | 0.96 | –
5 | C[C@H](NC(=O)Nc1ccc2c(c1)OCCO2)c1nccc(N)n1 | -9% | 1.34 | –
6 | Brc1ccc(C2=NNC(c3ccccc3)=Nc3cccnc32)cc1 | 4% | -0.54 | –
7 | Cc1ocnc1C(=O)N1CCCCC[C@@H]1CC(=O)c1ccccc1 | -10% | 1.53 | –
8 | O=C(NC[C@@H]1COc2ccccc2C1)c1cn[nH]c1C(F)(F)F | -7% | 0.76 | –
9 | O=C1C[C@@H]2CCN(C(=O)c3ccccc3)C[C@@H]2CCOc2ncccc2N1 | 4% | -0.67 | –
10 | CC1CCCCC1NCCN1CCCCC1 (stereo not given) | -9% | 1.21 | –
11 | Cc1ccc(C)c2c(C)c(C(=O)NC3(CO)CCCCC3)[nH]c12 | -8% | 1.05 | –
12 | Cn1cc(Cn2nnc3c(cnn3-c3ccccc3)c2=O)cn1 | -5% | 0.84 | –
13 | O=C(NCc1ccc[nH]1)C1CCCC(F)C1 (stereo not given) | 3% | -0.62 | –
14 | CCn1cc(Cc2nc(-c3ccc(=O)n(C)c3)no2)cn1 | -19% | 2.06 | –
15 | COc1ccc(CN2CC[C@H](O)CC(C)(C)C2)nn1 | -2% | 0.27 | –
16 | Cc1noc([C@@H]2CN(C(=O)NC3CCCCC3)CCCN2C(=O)c2ccccc2)n1 | -6% | 1.14 | –
17 | O=S(=O)(CCC1CCC1)NC1CCOC1c1ccc(Cl)cc1 (stereo not given) | -8% | 1.38 | –
18 | CCC[N+](CC#Cc1ccccc1)(CCC)CC(=O)c1ccc(Cl)cc1 | -9% | 1.44 | –
19 | CCO[C@@H](C)c1ccc(-c2ccc(O)c(-c3ccno3)c2)cc1 | -7% | 0.82 | –
20 | CCN1CCC[C@@H]1CNCc1ccc2c(c1)OCCO2 | – | – | -6%
21 | CC1(C)NC(=O)N(CC(=O)NC(Cc2ccccn2)[C@H]2C[C@@H](O)C2)C1=O (stereo not given in full) | -7% | 1.22 | –
22 | Cc1ccc(-c2noc(-c3ccccc3S(=O)(=O)N(C)c3ccc(C)cc3)n2)cc1 | -5% | 0.58 | –

Row | Structure (SMILES) | % Inhibition | Z score | % Inhibition (2 µM)
23 | Cc1nnc2ccc(-c3noc([C@@H]4CCC(C)(C)O4)n3)cn12 | -1% | 0.24 | –
24 | O=C(N[C@H]1CCCc2occc21)c1ccco1 | 32% | -0.61 | –
25 | CCS(=O)(=O)N[C@@H](C)C(=O)N1CCCCC1 | -15% | 1.98 | –
26 | O=C(NCCn1ccnc1)C(=O)Nc1cccc2nonc12 | -7% | 1.2 | –
27 | Cc1ccc(-n2c(=O)c3c(cnn3C)n(Cc3ccccc3Cl)c2=O)cc1 | 8% | -0.8 | –
28 | CC(C)c1cccc(CC(=O)NC[C@@H]2CCC[C@H]2O)c1 | -10% | 1.27 | –
29 | O=C(CN1CCOCC1)N1C[C@@H]2CC[C@H]1CN(CCCc1ccccc1)C2 | -6% | 0.89 | –
30 | CC[C@H]1C=CCN1C(=O)c1ccn2nnnc2c1 | -18% | 1.72 | –
31 | C[C@H]1OCCN(C(=O)c2csc(-c3ccc(F)c(F)c3)n2)[C@@H]1C(N)=O | -1% | 0.14 | –
32 | Cc1nn(CCC(N)=O)c(C)c1/C=C/C(C)(C)C | -1% | 0.27 | –
33 | c1ncc(CNCc2ccc3c(n2)CCCC3)s1 | -11% | 2.08 | –
34 | O=C(CCC(=O)N1CCc2ccccc2C1)c1ccc2c(c1)OCCCO2 | -4% | 0.45 | –
35 | C[C@H](NC(=O)C1(C)COC1)c1csnn1 | 3% | -0.33 | –
36 | Cc1ccc(CNC(=O)N2CCC(C)(c3noc(C)n3)CC2)cc1 | 8% | -0.98 | –
37 | CC(C)C1OCCC1CNc1ncnc2nc[nH]c12 (stereo not given) | -3% | 0.26 | –
38 | CC1CN(C(=O)NCC(C)c2c(Cl)cccc2Cl)CC2(CCOC2)O1 (stereo not given) | 1% | -0.14 | –
39 | c1ccn2cc(CN3CCC[C@H](Cn4cncn4)C3)nc2c1 | -13% | 1.79 | –
40 | Cc1ccc(S(=O)(=O)Nc2[nH]nnc2C(=O)N2CCCC2)c(C)c1 | -13% | 1.71 | –
41 | Cc1ccc(CCC(=O)N2CCC2)cc1 | -9% | 1.04 | –
42 | Cn1ccnc1[C@H]1N(Cc2ccc(C(N)=O)cc2)CC1(C)C | -7% | 1.23 | –
43 | Nc1cc(N2CCC3(CC2)CC(=O)N(Cc2ccc(F)c(F)c2)C3)ncn1 | 3% | -0.36 | –

Reference: ChEMBL document CHEMBL4888484, “Replenishing the malaria drug discovery pipeline: Screening and hit evaluation of the MMV Hit Generation Library 1 (HGL1) against asexual blood stage Plasmodium falciparum ,using a nano luciferase reporter read-out” (2022)
